Experimental data as given in PubChem BioAssay AID485344 (National Center for Advancing Translational Sciences (NCATS), 2010).
In all, about 340,000 compounds went through this assay and about 6,900 (2%) were called active. Cut-off read from the data, not from the text of the source: active = inhibition above about 30%; inactive = below that, where a call was filed. This is a selection; strong and weak results do not stand in their true shares. Where no call is shown, the source filed none.
Note: 0% is about no effect.

What follows are compounds tested against D(2) dopamine receptor (Homo sapiens) (UniProt P14416) (assay: HTS Assay for Allosteric Antagonists of the Human D2 Dopamine Receptor: Primary Screen for Antagonists). Settings: HEK293 TREx D2 cells, calcium flux, dopamine EC80; at 10 µM; stronger effect = higher value.
Sequence of UniProt P14416 (P14416 whole entry, looked up): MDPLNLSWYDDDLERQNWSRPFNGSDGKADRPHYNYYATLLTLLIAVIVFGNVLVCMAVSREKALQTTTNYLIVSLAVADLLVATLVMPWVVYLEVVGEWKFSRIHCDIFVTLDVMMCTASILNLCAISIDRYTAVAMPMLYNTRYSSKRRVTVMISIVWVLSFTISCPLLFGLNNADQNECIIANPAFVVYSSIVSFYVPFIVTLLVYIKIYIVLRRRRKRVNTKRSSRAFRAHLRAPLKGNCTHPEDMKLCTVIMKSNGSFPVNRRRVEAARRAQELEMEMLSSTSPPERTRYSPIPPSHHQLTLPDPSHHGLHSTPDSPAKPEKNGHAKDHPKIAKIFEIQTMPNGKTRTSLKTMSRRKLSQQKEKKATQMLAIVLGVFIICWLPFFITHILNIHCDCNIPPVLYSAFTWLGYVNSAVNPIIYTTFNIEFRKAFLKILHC
Method in brief: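 Compounds are added to dye-loaded, induced HEK293 T-REx cells coupled to calcium release via D2; after a 3 min kinetic read an EC80 dopamine stimulus is given and fluorescence is recorded for 3 more min.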
For `Nc1c(Cl)c(Cl)nc(C(=O)OCC(=O)NC2CCCCC2)c1Cl`, the inhibition was active: 56.6%. `COC(=O)c1ccc(NC(=O)c2cnn(-c3ccc(Cl)cc3)c2C2CCN(C(=O)OC(C)(C)C)CC2)cc1` was tested, and the inhibition was -3.34%. With `COc1ccccc1C(=O)Nc1cccc(OCc2cc(=O)n3ccccc3n2)c1` the inhibition was 13.7%. For `CCc1nn(CC(=O)NCCc2ccc(Cl)cc2)c(=O)c2cc3c(OC)cccc3n12`, the inhibition was 13.5%. In the case of `Cc1cc2oc(C(=O)N(Cc3ccc(Cl)cc3)Cc3ccco3)c(C)c2cc1Cl`, the inhibition is reported as -4.79%. `Cc1cc(C)c(NC(=O)c2cc(C)nc3c2c(C)nn3-c2cccc(F)c2)c(C)c1` was tested, and the inhibition was 7.15%. `CCN(CC)C(=O)c1c(NC(=O)c2ccccc2F)sc2c1CCC(C(C)(C)C)C2` (stereo unspecified) showed an inhibition of 6.39%. Compound `CCc1ccc(-c2nn(-c3ccc(OC)cc3)c3c2cnc2ccc(OC)cc23)cc1` has an inhibition of -15.8%. With `CCc1ccc(NC(=O)C2CCCN(S(=O)(=O)c3ccc4c(c3)oc(=O)n4C)C2)cc1` (stereo unspecified) the inhibition was -3.87%. Work on `COCCCNC(=O)CCCn1c(SCC(=O)c2ccc(Br)cc2)nc2c(sc3ccccc32)c1=O` yielded an inhibition of 22.3%. Work on `Cc1ccc(C(=O)NCC(c2ccc(Cl)cc2)N2CCCCC2)cc1` (stereo unspecified) yielded an inhibition of 17.4%. With `CCOc1ccc(C(=O)N2CC(=O)Nc3ccc(C)cc3C2c2ccc(F)cc2)cc1OCC` (stereo unspecified) the inhibition was -9.43%. `CCOc1ccc(-c2nnc(NC(=O)Cc3ccc(OC)cc3)o2)cc1` was tested, and the inhibition was active: 35%. Work on `Cc1ccc(Cl)c2sc(NC(=O)c3ccc(S(=O)(=O)N4CCCC4)cc3)nc12` yielded an inhibition of -14.7%. `COc1cccc(CNC(=O)c2cccc(N3CCCS3(=O)=O)c2)c1` showed an inhibition of 3.02%. `Cc1cc(Nc2ccccc2C)c2cccc(C)c2n1` was tested, and the inhibition was 4.26%. In the case of `CCC(C)n1c(SCC(=O)Nc2ccccc2C(=O)OC)nc2ccsc2c1=O` (stereo unspecified), the inhibition is reported as 0.129%. `O=C(NCc1c(-n2cccc2)sc2c1CCCC2)Nc1cccc(C(F)(F)F)c1` showed an inhibition of -8.36%. With `CCN(CC)S(=O)(=O)c1ccc(C(=O)OCn2c(SC)nnc(C)c2=O)cc1` the inhibition was active: 35.4%. Compound `CC(=O)c1ccc(N2CCN(C(=O)Nc3ccc(C)cc3)CC2)cc1` has an inhibition of 5.68%. Compound `Cc1ccc(Nc2c(-c3ccc(N4CCOCC4)cc3)nc3ccc(C)cn23)cc1` has an inhibition of 6.93%. In the case of `COc1cc(C(=O)Nc2ccc3nc4n(c(=O)c3c2)CCCCC4)cc(OC)c1OC`, the inhibition is reported as -2.38%. In the case of `Cn1c(=O)oc2cc(S(=O)(=O)NC(CC(=O)O)c3cccc(Br)c3)ccc21` (stereo unspecified), the inhibition is reported as 3.73%. Compound `COc1ccc(NC(=O)CSc2nnc(N)s2)cc1` has an inhibition of -4.5%. Work on `O=C(Nc1ccc(-c2nc3cc(Cl)ccc3o2)cc1)c1cc(Br)ccc1Cl` yielded an inhibition of 3.08%. `CCN(C(=O)CSc1nc2ccccc2c2nc(CCn3c(C)nc4ccccc43)nn12)c1cccc(C)c1` showed an inhibition of -8.82%. Compound `CCN(CC)S(=O)(=O)c1ccc2c(c1)N(CC(=O)N1CCN(c3cccc(C)c3)C(C)C1)C(=O)CO2` (stereo unspecified) has an inhibition of -9.57%. `COc1cc(C(=O)NC2(C(F)(F)F)C(=O)NC(C)=C2C#N)cc(OC)c1OC` (stereo unspecified) gave an inhibition of 1.82%. Compound `Cc1cccc(NC(=O)CCn2cnnn2)c1` has an inhibition of -13.8%. In the case of `COc1ccc(-c2csc3nc(-c4ccc(Cl)cc4)oc(=O)c23)cc1`, the inhibition is reported as 7.48%. `CCc1cccc(NC(=O)c2cnc(N3CCOCC3)c3ccccc23)c1` was tested, and the inhibition was -2.21%. `Cc1c(C(=O)N2CCCC2)oc2c1-c1nn(CC(=O)NCc3ccc(OC(C)C)cc3)cc1CC2` showed an inhibition of -7.09%. With `CN(CC(=O)Nc1ccc(OC(F)(F)F)cc1)S(=O)(=O)c1ccc2c(c1)CCC(=O)N2` the inhibition was 10.2%. For `Cc1ccc2occ(-c3cc(-c4ccccc4)nc4c3COc3ccccc3-4)c(=O)c2c1`, the inhibition was 7.61%. With `CCOC(=O)c1cc(-c2ccccc2)n(CCCC(=O)Nc2ccc(C)c(Cl)c2)c1C` the inhibition was 0.79%. Compound `Cc1ccc(C)c(NC(=O)CSc2nc3nccnc3c(=O)n2CCc2c[nH]c3ccccc23)c1` has an inhibition of 21.4%. Compound `COc1ccc(N2CC(C(=O)NCCS(=O)(=O)N3CCN(c4ccccc4)CC3)CC2=O)cc1` (stereo unspecified) has an inhibition of -6.25%. `CC(C)OCCCNC(=O)c1cn(C)c2ccc(S(=O)(=O)N(C)C3CCCCC3)cc2c1=O` gave an inhibition of 10.3%. `CC(C)CCn1nnnc1CN1CCN(c2ccccc2)CC1` was tested, and the inhibition was active: 49.9%. For `Cc1ccc2c(=O)c(C(=O)c3ccccc3)cn(CC(=O)NCc3ccccc3)c2n1`, the inhibition was -17.9%. With `CCOc1ccc(NC(=O)CSc2ncc(S(=O)(=O)c3ccc(F)c(C)c3)c(=O)[nH]2)cc1` the inhibition was 1.49%. `Cc1ccc(CNc2nc(-c3ccco3)nn2C(=O)c2ccccc2[N+](=O)[O-])cc1` showed an inhibition of 5.39%. For `CCS(=O)(=O)Nc1ccc2[nH]c(=O)[nH]c2c1`, the inhibition was active: 32.8%. Work on `COc1ccccc1N1CCN(c2nc3c(S(=O)(=O)c4ccccc4)nnn3c3ccc(Cl)cc23)CC1` yielded an inhibition of 1.9%. Compound `CCOC(=O)c1scc(-c2ccccc2)c1S(=O)(=O)Nc1ccccc1OC` has an inhibition of 12.4%. With `N#Cc1nc(-c2ccc(COc3ccc(Cl)cc3)o2)oc1N1CCCCC1` the inhibition was 1.21%. With `COc1ccc(CNS(=O)(=O)c2ccc(C(=O)N(C)C)s2)cc1` the inhibition was -7.4%. For `O=C1c2[nH]nc(-c3ccccc3O)c2C(c2cccc(OCc3ccccc3)c2)N1CCCO` (stereo unspecified), the inhibition was -6.94%. `Fc1ccc(N2CCN(Cc3nnc(-c4ccccc4Cl)o3)CC2)cc1` showed an inhibition of -16.2%. In the case of `COc1ccc(Cn2c(SCc3ccc(C(=O)NC4CCCCC4)cc3)nc3ccncc32)cc1`, the inhibition is reported as 2.93%. Compound `CCc1cccc(C)c1Nc1c(-c2ccc(F)cc2)nc2sccn12` has an inhibition of -15.8%. `CCOC(=O)c1sc2ccccc2c1S(=O)(=O)Nc1cc(OC)ccc1OC` gave an inhibition of 1.6%. With `COc1ccc(CNCc2c(C(=O)O)c(C)n(Cc3ccccc3C)c2C)cc1OC` the inhibition was -3.8%. Compound `Cc1ccc(C)c(N2CCN(S(=O)(=O)c3ccc4[nH]c5c(c4c3)CCCC5)CC2)c1` has an inhibition of 14.5%. For `COc1ccc(N2CCN(c3ncccc3-c3nc(-c4ccccc4C)no3)CC2)cc1`, the inhibition was 16%. Work on `CCOc1ccc(C2C(=O)N(C3CCCCC3)CC(=O)N2Cc2ccc(F)cc2)cc1OC` (stereo unspecified) yielded an inhibition of 23.1%. `CCc1ccc(C(c2ccccc2)c2c(C)[nH]c3ccccc23)s1` (stereo unspecified) was tested, and the inhibition was 5.35%. With `Cc1cc(C)c(NC(=O)CSc2nc3ccccc3c3nc(-c4ccccc4)nn23)c(C)c1` the inhibition was -27.3%. For `Cc1cccc(CNC(=O)c2ccc3c(c2)N(C)CCS3)c1`, the inhibition was -1.78%. With `COc1cccc(-c2ccc(-c3noc(-c4ccccc4F)n3)c(OC)n2)c1` the inhibition was active: 39.8%. `COc1ccc(NC(=O)Cn2c(=O)n(CCCC(=O)NCc3ccccc3Cl)c(=O)c3ccccc32)c(OC)c1` was tested, and the inhibition was 24.4%. In the case of `CNC(=O)NC(=O)CN1C(=O)NC2(CCOc3ccccc32)C1=O` (stereo unspecified), the inhibition is reported as active: 31.2%. `Cc1ccccc1C(=O)Nc1cccc(NC(=O)c2ccc(C(C)(C)C)cc2)c1` was tested, and the inhibition was 0.498%. Work on `CCc1ccc(NC(=O)CSc2ccc(-c3sc(-c4ccccc4)nc3C)nn2)cc1` yielded an inhibition of -1.53%. `Cc1ccc(SCC(=O)OCC(=O)N(CCC#N)c2ccccc2)cc1` was tested, and the inhibition was active: 33.2%. In the case of `CCN(Cc1ccccc1)c1nc2c(S(=O)(=O)c3ccccc3)nnn2c2ccc(Cl)cc12`, the inhibition is reported as -15.2%. `Cc1nn(C(C)C(=O)NCCc2ccccc2)c(=O)c2c1sc1ccccc12` (stereo unspecified) was tested, and the inhibition was 24.4%. With `COc1c2c(cc3oc(=O)ccc13)OC(C)(C)C=C2` the inhibition was active: 33.4%. `CCOC(=O)CSc1nc2sc3c(c2c(=O)n1Cc1ccccc1)CC(C(C)C)OC3` (stereo unspecified) showed an inhibition of 0.514%. `CCC(C)NC(=O)CCCn1c(=O)c2cccn2c2ccccc21` (stereo unspecified) gave an inhibition of -9.96%. With `Cc1cc2oc(C(=O)Nc3ccc(S(=O)(=O)Nc4nccs4)cc3)cc(=O)c2cc1Cl` the inhibition was active: 33.8%. `COc1ccc(C2C(=O)N(C3CCCCCC3)CC(=O)N2CCc2ccc(Cl)cc2)cc1OC` (stereo unspecified) gave an inhibition of 9.87%. For `NC(=O)c1c(NC(=O)Cc2ccccc2)sc2c1CCN(Cc1ccccc1)C2`, the inhibition was active: 47.4%. `CCC(C(=O)NC1CCCCC1)n1c(SCc2ccccc2F)nc2ccncc21` (stereo unspecified) was tested, and the inhibition was -19.7%. Compound `COCCNC(=O)CN1C(=O)COc2ccc(S(=O)(=O)N3CCCCCC3)cc21` has an inhibition of -0.734%. `O=C(COc1ccccc1)N(Cc1cccnc1)c1nc2c(F)cc(F)cc2s1` gave an inhibition of -14.8%. Compound `Cc1sc(C2C(C#N)=C(N)N(c3ccc(Cl)cc3)C3=C2C(=O)CCC3)cc1CN1CCOCC1` (stereo unspecified) has an inhibition of -1.68%. `CC1CCN(S(=O)(=O)c2ccc3c(c2)N(CC(=O)NCCCOC(C)C)C(=O)CO3)CC1` gave an inhibition of 20.7%. In the case of `COCCNC(=O)Cn1c(-c2cccs2)cc2cc(Cl)ccc21`, the inhibition is reported as 28.4%. With `Cc1ccsc1CN(C(=O)COc1ccccc1Cl)C1CCS(=O)(=O)C1` (stereo unspecified) the inhibition was -3.81%. `Cc1ccccc1CNC(=O)CN1C(=O)CCCc2ccccc21` was tested, and the inhibition was -6.33%. With `COc1ccc(CCNC(=O)CCCn2c(=O)c3ccccc3n(CC(=O)Nc3ccccc3C)c2=O)cc1OC` the inhibition was -1.88%. `O=C(CN1CCN(Cc2ccc(F)cc2)C1=O)NCc1ccc(F)cc1` was tested, and the inhibition was 3.85%. Compound `COc1ccc(Cn2c(SCC(=O)N3CCN(c4ccc(F)cc4)CC3)nc3ccccc32)cc1` has an inhibition of -3.92%. For `Cc1ccc2scc(N3CCCCC3C)c(=O)c2c1` (stereo unspecified), the inhibition was 18.6%. With `Cc1ccc(NC2(c3ccccc3)C(=O)c3ccccc3C2=O)cc1F` the inhibition was 23.8%. For `COCCCNC(=O)c1c(NC(=O)Cc2coc3cc(C)ccc23)sc2c1CCCC2`, the inhibition was -1.32%. `O=[N+]([O-])c1cc(-c2nc(-c3ccccc3)no2)ccc1NCc1ccco1` showed an inhibition of 14.2%. Work on `Cc1ccccc1CN1C(=O)c2ccccc2S(=O)c2ccc(C(=O)N3CCOCC3)cc21` (stereo unspecified) yielded an inhibition of 17.7%. Compound `Cc1ccc(C(=O)c2oc3ccccc3c2NC(=O)COc2ccccc2C)cc1` has an inhibition of 0.195%. In the case of `Cn1c(=O)c2cc(C(=O)NCCCN3CCN(c4ccc(F)cc4)CC3)sc2c2ccccc21`, the inhibition is reported as 22.9%. With `CC1CCN(C(=O)Cn2cc(SCC(=O)NCc3ccc(F)cc3)c3ccccc32)CC1` the inhibition was 10.4%. With `CCCCc1ccc(C(=O)c2c(N)c(C(=O)Nc3cccc(OC)c3)c3ccccn23)cc1` the inhibition was -4.54%. `O=C(NCCCN1CCC(Cc2ccccc2)CC1)c1ccc2nc(N3CCOCC3)sc2c1` was tested, and the inhibition was active: 48%. `Cc1nnc(N2C(=O)c3oc4ccccc4c(=O)c3C2c2cccc(OCCC(C)C)c2)s1` (stereo unspecified) was tested, and the inhibition was 16.6%. Work on `CC(=O)c1ccc(Oc2ncnc3c2oc2ccccc23)cc1` yielded an inhibition of 7.31%.
